Measurements published in paper PMC4336329 (PLoS ONE, 2015).
The campaign covered roughly 310,000 compounds. About 14,000 (4.5%) showed an effect of 50% or more. The effect is printed as a negative number. The list shows a part of the results.

biological target: human ether-à-go-go-related gene (hERG) potassium channel (human, UniProt Q12809); experiment: primary screen, population patch clamp on CHO cells stably expressing hERG
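Note: peak tail current of the secondary pulse compared with the same well before compound.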

Sequence of human ether-à-go-go-related gene (hERG) potassium channel (Q12809 whole entry, looked up): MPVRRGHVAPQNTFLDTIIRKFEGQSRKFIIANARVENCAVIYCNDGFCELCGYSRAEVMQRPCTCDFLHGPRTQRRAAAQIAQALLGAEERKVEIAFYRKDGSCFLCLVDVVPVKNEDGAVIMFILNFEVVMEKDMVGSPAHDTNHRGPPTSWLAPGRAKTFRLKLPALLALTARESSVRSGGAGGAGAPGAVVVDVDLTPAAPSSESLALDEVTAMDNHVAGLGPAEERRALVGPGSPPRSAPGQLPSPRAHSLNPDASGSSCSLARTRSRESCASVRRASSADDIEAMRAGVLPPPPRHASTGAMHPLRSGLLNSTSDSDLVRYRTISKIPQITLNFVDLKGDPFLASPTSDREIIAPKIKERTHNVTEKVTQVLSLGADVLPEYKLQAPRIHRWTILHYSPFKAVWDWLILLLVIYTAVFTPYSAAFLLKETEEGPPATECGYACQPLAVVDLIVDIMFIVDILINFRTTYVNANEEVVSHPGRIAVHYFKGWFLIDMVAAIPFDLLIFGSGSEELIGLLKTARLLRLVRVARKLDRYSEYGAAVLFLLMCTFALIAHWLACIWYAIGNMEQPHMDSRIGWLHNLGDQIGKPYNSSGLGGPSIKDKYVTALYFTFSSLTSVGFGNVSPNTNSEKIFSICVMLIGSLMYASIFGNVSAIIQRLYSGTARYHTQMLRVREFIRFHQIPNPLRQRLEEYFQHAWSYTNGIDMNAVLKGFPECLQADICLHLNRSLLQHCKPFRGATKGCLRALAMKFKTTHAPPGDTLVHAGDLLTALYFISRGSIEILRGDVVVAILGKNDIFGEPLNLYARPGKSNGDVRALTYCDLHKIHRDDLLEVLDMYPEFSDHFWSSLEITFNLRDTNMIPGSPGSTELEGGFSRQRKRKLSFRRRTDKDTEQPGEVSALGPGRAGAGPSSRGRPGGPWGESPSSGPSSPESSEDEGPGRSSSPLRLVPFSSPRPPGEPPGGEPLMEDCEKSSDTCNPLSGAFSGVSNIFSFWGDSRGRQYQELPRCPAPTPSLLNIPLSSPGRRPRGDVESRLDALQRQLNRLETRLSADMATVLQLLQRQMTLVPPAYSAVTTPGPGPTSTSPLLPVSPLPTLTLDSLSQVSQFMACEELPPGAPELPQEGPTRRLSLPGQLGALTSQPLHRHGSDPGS

SMILES	hERG current change (%, negative = inhibition) at 10uM [%]
CC(C)Cc1nnc(NC(=O)CSc2nc(O)c(Cc3ccccc3)c(=O)[nH]2)s1	24
N#CC1(NC(=O)CSc2n[nH]c(-c3ccccc3)n2)CCCCC1	3.19
Cc1ccc(C)c(S(=O)(=O)N2CCCCC2CCNC(=O)C(=O)NCc2ccncc2)c1 (centres unmarked)	-45.7
COc1ccc(NC(=O)CCCN2C(=O)CN(C)C2=O)c(OC)c1	-4.4
CCOCCn1c(CN2CCN(c3ccc(F)cc3)CC2)nc2c1c(=O)n(C)c(=O)n2C	-56.2
CCOC(=O)c1ccc(N2C(=O)CC(Sc3ncccn3)C2=O)cc1 (centres unmarked)	2.47
CC(C)(C)c1cc(C(=O)CCN2CCOCC2)cc(C(C)(C)C)c1O	-42.7
CC(=O)c1ccc(N2CCN(S(=O)(=O)c3ccc4c5c3CC(=O)N5CC(C)S4)CC2)cc1 (centres unmarked)	12.5
Cc1nc(C)c(-c2ccc(SCc3ccc([N+](=O)[O-])cc3)nn2)s1	-27.6
CCc1ccc(N2CC(C(=O)OCC(=O)Nc3ccc(C(C)=O)cc3)CC2=O)cc1 (centres unmarked)	-19.1
CCOc1ccc2[nH]cc(C(=O)NCCc3ccccc3)c(=O)c2c1	11.5
C/C(=N\Nc1ccccc1[N+](=O)[O-])c1ccc(N2CCOCC2)cc1	17
Cc1ccc(NC(=O)CCCNC(=O)c2ccc(Cl)cc2)cc1S(=O)(=O)N1CCOCC1	-17.9
O=C1c2cccnc2C(=O)N1c1cccc([N+](=O)[O-])c1	26.7
C/C=C\C=C/C(=O)Nc1cccc(C2=NOC3(C2)C[C@@H](C(N)=O)N(C(=O)c2ccc(Cl)cc2)C3)c1 (some centres unmarked)	3.22
CN1CCN(c2ccccc2NC(=O)c2ccc(-c3ccc(Cl)cc3Cl)o2)CC1	-3.82
Cc1cn(C)c(=O)n(C)c1=O	4.46
Cc1ccc(S(=O)(=O)Nc2ccc(NC(=O)c3cccs3)cc2)cc1	12
COC(=O)Cc1[nH]n(-c2ccccc2)c(=O)c1C(C)=Nc1ccccc1	-12.1

SMILES	hERG current change (%, negative = inhibition) at 10uM [%]
Cc1c2cnn(CC(=O)NCCCN3CCCCC3)c(=O)c2c(C)n1Cc1ccccc1	9.96
CCOC(=O)c1c(-c2ccc(C)o2)csc1NC(=S)NC(=O)c1cccs1	25.8
O=C(NCCN1CCOCC1)c1cc(-c2ccc(Cl)s2)nc2ccccc12	-5.22
Cc1ccccc1NS(=O)(=O)c1cc2c(cc1C)NC(=O)CO2	-22.5
Cc1ccc(C(C)C)c(OCc2nc(-c3nonc3N)no2)c1	3.03
CCOc1ccc(-c2noc(CCC(=O)NCCc3ccccc3)n2)cc1OC	9.68
CN1C(N)=NC(=O)/C1=C/c1ccccc1F	5.16
CCCC(c1nnnn1CCOC)N1CCN(Cc2ccccc2)CC1.Cl (centres unmarked)	-12.1
COCCNC(=O)/C(C#N)=C/c1c(N2CCN(c3ccc(OC)cc3)CC2)nc2c(C)cccn2c1=O	-25.7
COc1ccccc1C(=O)COC(=O)CCN=C1NS(=O)(=O)c2ccccc21	-14.5
O=C(COc1ccccc1Cl)NCCCNC(=O)c1ccncc1	12.5
COc1cc2c(cc1OC)CN(CC(=O)Nc1ccc(S(=O)(=O)N(C)C)cc1)CC2	5.24
C/C(=N\NS(=O)(=O)c1ccc(C)cc1)c1cccs1	8.66
O=C(OC(C(=O)NCc1ccc2c(c1)OCO2)c1ccncc1)c1ccc(Cl)nc1 (centres unmarked)	-45.4
Cc1cc(C)c2sc(N(CCN(C)C)C(=O)CCS(=O)(=O)c3ccccc3)nc2c1.Cl	23
CSCCC(=O)N(C)CC1CCCN(CCc2cccc(C(F)(F)F)c2)C1 (centres unmarked)	-74.6
COc1ccc(C2c3c(oc4ccccc4c3=O)C(=O)N2c2ccccn2)cc1OC (centres unmarked)	5.63
NC(=O)c1c(NC(=O)Cc2cccs2)sc2c1CCC2	-18.2
COc1ccc(-c2noc(CCC(=O)Nc3ccc4c(c3)OCCO4)n2)cc1	3.33

SMILES	hERG current change (%, negative = inhibition) at 10uM [%]
Cc1cc(OC(=O)c2ccc(Cl)cc2Cl)nc(C)n1	6.82
Cc1ccc(C(=O)CC(SCC(=O)O)c2ccc([N+](=O)[O-])cc2)cc1 (centres unmarked)	2.56
FC(F)(F)c1cnc2c(c1)[nH]c(=S)n2-c1ccc(Cl)cc1	27
CCC(C(=O)NC1CCCCC1)n1c(SCc2cccc(F)c2)nc2ccncc21 (centres unmarked)	-24.2
CCOC(=O)/C(=C/C=C/c1ccccc1)NC(=O)c1ccccc1	-11.3
S=C(c1c[nH]c2ccccc12)N1CCCC1	9.74
O=C(NC1CCCCC1)C1CCN(S(=O)(=O)N2CCCCCC2)CC1	-1.16
C=CCSc1ccc(S(=O)(=O)N2CCN(C)CC2)cn1	-12.5
CC(=O)c1c(O)cc2n(c1=O)-c1ccc(Cl)cc1C2(C)C	-5
Cc1cc2[nH]ncc2cc1NC(=S)NC(=O)c1ccccc1	10.9
O=C(CCC(=O)N1CCN(c2ccc(F)cc2)CC1)c1ccc(F)cc1	-69.4
CCn1ccnc1CNC(=O)CC1C(=O)NCCN1Cc1ccc(F)cc1Cl (centres unmarked)	13.7
Cc1ccc(OCc2ccc(C(=O)O)o2)c([N+](=O)[O-])c1	25.2
CCCc1cc(=O)oc2cc(C)cc(OCC(=O)NCCCn3ccnc3)c12	-76.4
COc1ccccc1N1CCN(Cc2ccsc2)CC1	-30.2
O=c1c2c([nH]c3ccccc13)CCCCCC2	-1.57
COc1ccccc1-c1nnc(NC(=O)C(C)Sc2nncn2C)s1 (centres unmarked)	-1.37
CCOC(=O)N1CCC2(CC1)CC(=O)c1c(ccc3oc(C(=O)O)c(C)c13)O2	11.4
